RUNX1 binding intensity data for 80 sequences are collected here from the supplement of paper PMC10681739.

± gives the standard deviation of the averaged measurements. In all, about 4,000 sequences were measured (“arbitrary fluorescence units”: median about 830, highest 2% from about 6,500 on). This part holds few or none of the hits.
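Further: Full-length recombinant human RUNX1 bound to double-stranded DNA microarray spots, detected with an Alexa488-labelled secondary antibody after the anti-RUNX1 primary, read as scanned spot fluorescence.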

In the experiment the target is RUNX1 (UniProt Q01196). The experiment is described as follows: RUNX1 binding intensity (PBM fluorescence), RUNX1 alone (arbitrary fluorescence units); higher = stronger binding. The note with it: RUNX1 concentration 2 nM; ETS1 concentration 0 nM. The protocol: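 gcPBM on 36-bp genomic-derived probes (partner site mutated) containing one RUNX1 site and no ETS1 site. Recombinant human RUNX1 (2 nM) was incubated alone or with ETS1 (25 nM) and detected by anti-RUNX1 antibody fluorescence. Values are medians over 4 replicate spots (not normalised). The probes sit in constant array flanks that are not printed.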
UniProt Q01196, sequence (Q01196 whole entry): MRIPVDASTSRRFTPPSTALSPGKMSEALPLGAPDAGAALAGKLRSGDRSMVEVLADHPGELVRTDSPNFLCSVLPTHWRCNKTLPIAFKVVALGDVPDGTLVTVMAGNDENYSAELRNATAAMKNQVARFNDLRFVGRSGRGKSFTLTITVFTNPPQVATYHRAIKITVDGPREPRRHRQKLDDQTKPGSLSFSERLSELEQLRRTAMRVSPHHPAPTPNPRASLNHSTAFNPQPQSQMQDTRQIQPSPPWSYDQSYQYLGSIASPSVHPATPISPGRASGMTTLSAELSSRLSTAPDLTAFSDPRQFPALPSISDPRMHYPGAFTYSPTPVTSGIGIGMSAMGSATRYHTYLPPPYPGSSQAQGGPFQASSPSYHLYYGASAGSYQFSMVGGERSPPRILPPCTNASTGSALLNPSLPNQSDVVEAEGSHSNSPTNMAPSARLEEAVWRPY
CTCGTCAACCACACGTCACCCCGCCTACCTCCCGAC displayed an RUNX1 binding intensity of 1500.
TTGTGGTTTGGTTTAACCCCTGTAATTGCCTGTAAA registered an RUNX1 binding intensity of 1030.
Sequence GCCGCGCTTTTCGGAGCTGGTCGCCGCAGCGAACAA displayed an RUNX1 binding intensity of 836.
In the case of TGCTCCACTCCGCAACGCTGCTGTGATTTGCTGTTT, the RUNX1 binding intensity stood at 808.
GTGTGGTGAGCCACAGGCTGCCATAGACTCGGAGGC had an RUNX1 binding intensity of 728.
In the case of CCGCCACCGCAGCTAAAACTTCAGGCGCCGGGACCG it was 1290; in that of CGGCGCTCGCCGAAGTGCCGCGGTGCCTGCTCTGCA, 773; in that of CTCACTGTGGTGCTATACTTTGTCTCCTTTCTCTTT, 1090.
For CCTTGTTCACAGCCTTGCACTCTGCGGGGACGGGAG the value was 880.
Take CAAAGCAACCACCACCTGGTGGCGCCACCTCCCCCC: the RUNX1 binding intensity stood at 944.
For CGGAGCCCAACCACCGGCACTTTCGGGGGGCGGGTG the value was 831.
TCTACCCTTCATGCTCTGGCCTGGGCTGTGGTAGCT displayed an RUNX1 binding intensity of 709.
TCCTCCCACACCCACAGGCTTCCAGCCATAGCTGCA: the RUNX1 binding intensity was determined as 1190.
For GCGCGGTGTAGCAATTGGAGGACCCATGAAGAAGGG the value was 826.
For ATGGCAACCACAGTCTGTAACCGACACCGTAAGCGA, the RUNX1 binding intensity was 977.
In the case of CCCTTGTGGCCATGTTACACGCCAGCAAATTGAGCT it was 1930; in that of CTTGCGGTCCCCTCGGGTGGTGGCAGCATGTAGGTA, 956; in that of CAATGTGGTTAAAACCAGTTAGTTCCCTCGGAGGTT, 2060.
Consider CCGACCGCAGGGGCGGGGCCGGAGCCAGCAAGCGCT, for which the RUNX1 binding intensity is 1070.
GGGGGAATGTAGGACGTATCATCGCCCACAAGAAAG gave an RUNX1 binding intensity of 809.
With TCCAGCATGTGCTGAACCTCCAGAAACCACCGGCTT, the RUNX1 binding intensity was 802.
For CCTAAGCGGTTAAGGAACTGGCTTTGACAGGCAGTG the value was 865; for GTGCAGACAGGCAATAGCTGCTCTGCGGCAGCCCGA, 712; for CCACCACCCACAGCAGCTGCAAACGTCCTCCAGACC, 1080.
Consider CCCTGCCTGAGGGCAAGGCGAGGGCACCCACAGCCT, for which the RUNX1 binding intensity amounted to 781.
In the case of GCGCCATCTCCGCTGCGCAAGGCACCACAGGCCCTG it was 807; in that of ACGGTCAATGGCCGCAAACCGGGAGCAAGGCGGGAG, 780; in that of CGTGTTCCGTAACCACCACCCCTCTTCATGTTTCTC, 2410.
For ACTCGCGCACCCCCACAGTTCCCCTTCAGGCAGTGG the value was 915; for CAGAGGACAGCATGCCAACCCCAAAACCGCAGCGAC, 6310.
CGTGGTACCGCAGAGGCCAATCTTCAACAGGCAGTC registered an RUNX1 binding intensity of 1160.
For the sequence GGGTGGCGGTCACGTGCCCAGAACGCCCGGCGTTCG, the RUNX1 binding intensity came out at 758.
The sequence AACACAGGTTGTGGGAGCAAGAAAGGAGGTGGCTTG yielded an RUNX1 binding intensity of 751.
As to CCACTTACCGCGAGAACGCGGAGTCCTGCGCATGGC, the RUNX1 binding intensity is 922.
Take GCGAGGGTGGAACGAAGCAGTGACCGCGCTCCTCTC: the RUNX1 binding intensity came to 809.
Turning to GACAAGATTGCGGGTGGGAACCCCATCAGGTTTGTT, the RUNX1 binding intensity amounted to 929.
Sequence ACTACAGGAGGAGACTACAGCCTAAACCACATGCAA returned an RUNX1 binding intensity of 907.
On to AGACCCGGGAATGGTGGGTGTTTCTTGCAACCACGG, for which the RUNX1 binding intensity came out at 696.
In turn, GTGCCTCCCGCAAGTTCTGTCCCCTCCGTCCCTTCA yielded an RUNX1 binding intensity of 1210.
For CAGGGTGGAATCATGAAGAGAAACCACACTTAACCT the value was 738; for GCGCTGTACTGCGGCTTGTGCCGCTTCGGCCAGAAG, 798; for GGCTAAGATGGAAACCACGAGCGGAATTCAGACATA, 825.
Turning to CCATATCTGGCCTCCTAAGGAGGAACCACAAACCGT, the RUNX1 binding intensity worked out at 932.
For GGCAAACAGTAAACACTCCCAGGGCTGTGGGCTCCT the value was 749; for AGGGGAGGTGAGAATAGGGTGCCCACCCCCGCATTC, 710; for GAGGTTCATGCGGTCCCTTTTCGGCTGTTCCCGGAG, 911.
In the case of TGAAACCACCTCTGTCCAACCTGGATTCCTCTCCCG it was 913; in that of GGTGCGCAGCGCGCCGCAGCGACGGACCTTCTGCAA, 636 ± 40; in that of GAAGCAGACAGGCAGTGGGTCTGAGCGGTGGAGGGA, 662.
For CAAAACGGGACACTGGAACCAAGCGGTTATCTCAGA the value was 759; for CCTAGAACCGTAAGAGAAAGGGGCTGCGGTGCAGCA, 745.
Sequence GAGGTAGCCACCCACAACCAATCAGGCAACGGCGGC returned an RUNX1 binding intensity of 720.
As for CCGGGCGGTTGAAAAGTCCGAGAGAATCAGGCTGGA, the RUNX1 binding intensity is 761.
In the case of CCCTCAGCGAAAGTGGAAGCTGTGGTTTCCAAAGGC it was 881.
Sequence CTGTCCGCGACATACGGGACCTGCGGGACCGCCGAT returned an RUNX1 binding intensity of 772.
On to GCACAGCGGTCACAGAGGTGACGCGCAAGGAGACTG, for which the RUNX1 binding intensity turned out to be 827.
In turn, TCTCTTTCGTTCTCTGGTAGCTTTGTGGTAGCTTTG showed an RUNX1 binding intensity of 1490.
CTCTTTTATACCACAAGGAGGAAAAGGACATGAACC yielded an RUNX1 binding intensity of 1150.
With CCGCCGGGCTGCGGCGCTGGAACTGGACCAATCCGG, the RUNX1 binding intensity was determined as 751.
CTTCAGCAAGGGCGAGGCCGGGCGCGGTGGCTCACG displayed an RUNX1 binding intensity of 703.
Consider TAGGGGGGCGCGGTGAGCCCCGGCGGGAATCGAAGC, for which the RUNX1 binding intensity is 716.
In the case of CAATCAACCACAATGTGACCCTACAGGCGCAAAAAA, the RUNX1 binding intensity was 1390.
In turn, TAAATCGGCAACTCGCCGCTCAGCCCGCAGCCGCCG displayed an RUNX1 binding intensity of 870.
CAAAATGCGCGGTCTGGAGAGGCAACAAAGCAGTGG came in with an RUNX1 binding intensity of 832.
On to TTAGCCGTATGTGGTTTAAAAACTTGCTGTCATTGA, for which the RUNX1 binding intensity was found to be 1120.
Sequence TTTATCCTTATTTGCTGGCTTCGCCCACAAGCACAG returned an RUNX1 binding intensity of 1010.
As to AAACTGCGGCGCGAAAGTCTCTCGGGAATGACGCAA, the RUNX1 binding intensity worked out at 712.
For the sequence AACCTCACCAGCCACAGACAGGCAGCAAGAGGGCTG, the RUNX1 binding intensity is 841.
In the case of CCAGCAGCACGTCCCCCTTCTTCGTCCCGCAGAGGG it was 789; in that of TTCTTCAGCAAGGCGGGCTTGCGCCGCAGGAGCGGG, 687; in that of AAAGGGCCTGTGGTAACAAAGCAATATCTTGTTGAA, 883.
For TGTGTAACTGCCTGGCTTTGGTGGTTTCCCCCTCCT the value was 792; for TGAAGGGTGGTTGCCGCCTCCCCTTCGTTCCCAGTC, 910; for AACTGAACCACCACCACTTAACCTCTAAGGAATCGG, 1100.
Turning to TGGCGTGGTTTTTTTTTTTTTTTTCACCCGGCAACC, the RUNX1 binding intensity amounted to 1180.
Regarding GGACCTGCGGCGACCTGTAGGCGAAAGTCCGTGGCT, the RUNX1 binding intensity stood at 710 ± 13.
For the sequence AGTACAAAGGGGACATGTCTCTTGGTGGTTGATAAG, the RUNX1 binding intensity was 721.
Turning to ACATGAAAAGCTGTAAGCAGTGTCTGCGGCTTTCTC, the RUNX1 binding intensity came out at 721.
On to GCCGATTCCCGGTTCGCTCGGCCGCGGTCGCTATGG, for which the RUNX1 binding intensity is 795.
On to CCTAGCCGACGCCCGCAATAGGCGGCAGTGGCCGGG, for which the RUNX1 binding intensity was 770.
